According to PubChem BioAssay AID485294 (National Center for Advancing Translational Sciences (NCATS), 2010):
About 150 (0.041%) of roughly 370,000 compounds were called active. The inconclusive results got no clear call from the source; some entries with a clear call stand among them for comparison. Calls follow the shape of the dose curve; as a rule, active = well fitted inhibition curve with a large enough effect; inconclusive = small, poorly fitted or top-dose-only effect; inactive = flat fitted curve, though single readings scatter. Potencies of inconclusive entries are left out as doubtful fits.

These compounds were tested against Beta-lactamase (Escherichia coli (strain K12)) (UniProt P00811) (assay: qHTS Inhibitors of AmpC Beta-Lactamase (assay with detergent)). Details: AmpC hydrolysis of nitrocefin, absorbance 480 nm, 0.01% Triton; activity change, negative = inhibition: at 114 µM (top of the series).
Outline: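 20 mM phosphate pH 7.0 + 0.01% (detergent screen) or 0.0001% Triton X-100; 5.3 nM AmpC reagent; cpd preinc 15 min RT; nitrocefin (800 uM stock) to start; A480 q20 s × 4 min; Activity was normalised to no-enzyme and no-compound control wells.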
Also: nearly all actives have a fitted effect of over 25% in size.
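For activity change, negative = inhibition in this document: 0% = no-compound wells and -100% = no-enzyme wells.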
Potency is read from the fitted curve at half-maximal effect; tags tell the direction and shape of the fitted curve.

Sequence of UniProt P00811 (P00811 whole entry, looked up): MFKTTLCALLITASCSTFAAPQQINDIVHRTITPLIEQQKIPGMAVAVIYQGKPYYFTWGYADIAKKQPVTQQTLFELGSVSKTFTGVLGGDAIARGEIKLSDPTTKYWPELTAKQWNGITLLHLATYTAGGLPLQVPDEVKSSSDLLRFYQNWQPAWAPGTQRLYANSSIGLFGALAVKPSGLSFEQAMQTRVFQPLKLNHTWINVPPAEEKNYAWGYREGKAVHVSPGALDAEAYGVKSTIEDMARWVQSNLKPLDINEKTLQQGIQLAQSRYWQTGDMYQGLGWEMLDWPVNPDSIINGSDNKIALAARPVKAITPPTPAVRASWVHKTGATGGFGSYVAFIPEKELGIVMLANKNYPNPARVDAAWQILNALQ

Structure (SMILES)	Potency	activity change, negative = inhibition
O=C(CSc1nnc(-c2ccccn2)n1Cc1ccco1)c1ccccc1	inconclusive [inhibitor, partial curve, poor fit]	
Cn1ncc2c(N3CCN(c4ccccc4Cl)CC3)ncnc21		inactive: -9.4%
CCCc1ccc(OCc2ccccc2)c2c(=O)cc(C(=O)OCC)oc12	inconclusive [inhibitor, single point]	
CC1Cc2ccccc2N1C(=O)CSc1nnnn1-c1ccc2c(c1)OCCO2 (stereo not given)	inconclusive [inhibitor, single point]	
CCOc1cc(/C=N/NC(=O)Cn2nc([N+](=O)[O-])cc2C)cc(Br)c1OCc1ccccc1F	inconclusive [inhibitor, full curve, poor fit]	
CCCCCCc1nc2c(=O)[nH]c3ccccc3c2o1	inconclusive [inhibitor, full curve]	
Cc1csc2c(N3CCN(C(=O)Nc4ccccc4)CC3)ncnc12		inactive: 3.91%
Cc1cc(C)cc(N2C(=O)CC(N3CCOCC3)C2=O)c1 (stereo not given)		inactive: -3.79%
CC(C)CN(C(=O)COC(=O)C12CC3CC(CC(O)(C3)C1)C2)C1CCS(=O)(=O)C1 (stereo not given)	inconclusive [inhibitor, partial curve, poor fit]	
COc1ccc(CCNC(=O)CSc2nn(-c3ccccc3)c(=S)s2)cc1OC	inconclusive [inhibitor, partial curve]	
O=C(NCCCn1ccnc1)C1CC(c2cccc(Br)c2)=NO1 (stereo not given)	inconclusive [inhibitor, single point]	
CCCCOc1ccc(/C=C/C(=O)NC2=Nc3ccccc3NC(C)=C2C(=O)OCC)cc1OC		inactive: -2.05%
Cc1cc2nnn(-c3nnc(-c4ccccc4)c4ccccc34)c2cc1C		inactive: -2.52%
CCOC(=O)C1CCCN(CCSc2ccc(C)cc2)C1 (stereo not given)	inconclusive [inhibitor, single point]	
NC(=O)c1nsc(C(=O)N(c2ccc3c(c2)OCCO3)C(C(=O)NCC2CCCO2)c2ccc(F)cc2)c1N (stereo not given)		inactive: 1.58%
COc1ccc(N(CC(O)Cn2cnc3ccccc32)S(=O)(=O)c2ccc(C)cc2)cc1 (stereo not given)	inconclusive [inhibitor, full curve]	
O=C(NCc1ccco1)c1ccccc1NS(=O)(=O)c1ccc(Br)s1	inconclusive [inhibitor, full curve, poor fit]	
CSc1n[nH]c(NCc2ccccc2)n1	inconclusive [inhibitor, single point]	
CCOC(=O)C1=C(N)Oc2cc(O)ccc2C1c1ccc([N+](=O)[O-])cc1 (stereo not given)		inactive: 9.45%
CCOc1ccccc1NC(=O)CCNS(=O)(=O)c1ccc2c(c1)CCN2C(=O)C1CC1		inactive: -4.96%
CCN(CC)CC(=O)Nc1c(C)cc(C(C)(C)C)cc1C	inconclusive [inhibitor, full curve]	
CCS(=O)(=O)c1ncc(N(Cc2cccc(F)c2)Cc2ccco2)c(C(=O)Nc2ccccc2Cl)n1		inactive: 8.03%
COC(C(=O)N/N=C/c1ccc(OCC(=O)N2CCOCC2)cc1)c1ccccc1 (stereo not given)	inconclusive [inhibitor, partial curve, poor fit]	
COC(=O)c1cccc(NC(=O)CSc2nnc(C3CC3)n2C)c1	inconclusive [inhibitor, full curve]	

Structure (SMILES)	Potency	activity change, negative = inhibition
CCOc1cc(/C=C\c2[nH]c(=O)[nH]c(=O)c2[N+](=O)[O-])ccc1OC(C)CC (stereo not given)		inactive: -3.47%
O=C(c1ccc(F)cc1)N1CCN(c2cc(N3CCCCC3)c(F)cc2[N+](=O)[O-])CC1	inconclusive [inhibitor, partial curve]	
Cc1ccc(CNC(=O)c2cc(S(=O)(=O)N3CCCCC3)cn2C)cc1		inactive: 11.3%
Cc1ccc2nc(CN3CCN(C(=O)Nc4cccc(C)c4C)CC3)oc2c1		inactive: 0.394%
O=C(c1ccc(Br)s1)N1CCc2ccccc2C1		inactive: 3.22%
O=C(CN(Cc1ccco1)C(=O)c1ccccc1)Nc1ccc(Cl)c(Cl)c1	inconclusive [inhibitor, full curve]	
CCC1CN(C(=O)N2CCC(C(=O)N(C)Cc3ccccc3)CC2)c2ccccc2O1 (stereo not given)		inactive: 0.548%
CS(=O)(=O)N1CCN=C1SCc1cccc(F)c1		inactive: -1.01%
CCOC(=O)/C(=C/c1cn(C)c2ccccc12)NC(=O)c1ccccc1		inactive: -6.99%
O=C(CN(C1CCCCC1)S(=O)(=O)c1ccc(F)cc1)NC1CC1	inconclusive [inhibitor, full curve, poor fit]	
C[C@H]1CN=C(Nc2ccccc2)N1CCC1CCCCC1	inconclusive [inhibitor, partial curve, poor fit]	
COc1ccc(OC)c(N/C=C2/CCCCC2=O)c1	inconclusive [inhibitor, full curve, poor fit]	
COc1ccc(C(=O)N/C(N)=N/c2nc3ccccc3o2)cc1	inconclusive [inhibitor, partial curve]	
Cc1cccc(-n2c(SCC(=O)N3CCCC3)nc3n[nH]c(C)c3c2=N)c1	inconclusive [inhibitor, full curve, poor fit]	
C=C(C)Cn1c(C)cc(C)c(S(=O)(=O)c2ccccc2C)c1=O	inconclusive [inhibitor, single point]	
CCOC(=O)c1cccc(NC(=O)c2cnn(-c3ccccc3)c2-n2cccc2)c1		inactive: 19.2%
Nc1ccc(C(=O)OCc2csc(-c3ccccc3)n2)cc1[N+](=O)[O-]	inconclusive [inhibitor, full curve, poor fit]	
COc1ccc(Cl)cc1NC(=O)CN(C)C(=O)C12CC3CC(CC(Cl)(C3)C1)C2	inconclusive [inhibitor, full curve, poor fit]	
COC(=O)c1ccc(-c2cc3onc(-c4ccccc4)c3c(=O)n2C)cc1	inconclusive [inhibitor, single point]	
CCOC(=O)c1cc(-c2ccc(Cl)cc2)nc2c1c(C)nn2CCC#N		inactive: 9.37%
CCOc1ccc(C(C)=O)cc1Cn1nc(C(=O)O)c2ccccc2c1=O		inactive: -17.6%
COc1ccc(-c2cc(C(F)(F)F)n3nc(C(=O)Nc4sc5c(c4C#N)CCC(C)C5)cc3n2)cc1OC (stereo not given)		inactive: -1.07%
CC(=O)c1ccc(NC(=O)CSc2ccc(-c3sc(C)nc3C)nn2)cc1		inactive: 0.99%
CCOc1ccc(NC(=O)CC2C(=O)N(c3cccc(C)c3)C(=O)N2Cc2ccco2)cc1 (stereo not given)		inactive: 11.2%

Structure (SMILES)	Potency	activity change, negative = inhibition
CCOC(=O)c1c(NC(=S)Nc2ccccc2)sc2c1CCN(CCc1ccccc1)C2		inactive: 4.5%
COc1ccc(NC(=O)N2CCCC2C(=O)Nc2ccc(C)cc2)cc1 (stereo not given)	inconclusive [inhibitor, partial curve, poor fit]	
CC(OC(=O)c1ccc(Cl)nc1)C(=O)NC1(C#N)CCCCC1 (stereo not given)	inconclusive [inhibitor, full curve, poor fit]	
CC(C)Cc1nnc(NC(=O)CSc2nc(O)c(Cc3ccccc3)c(=O)[nH]2)s1	inconclusive [inhibitor, single point]	
O=C(Nc1ccc2c(c1)OCO2)C1CCN(Cc2cc3c(cc2O)OCO3)CC1	inconclusive [inhibitor, full curve]	
CC(C)c1cc(N2CCN(C(=O)c3ccco3)CC2)n2c(nc3ccccc32)c1C#N	inconclusive [inhibitor, full curve, poor fit]	
CCn1cc(Br)c(C(=O)N(C)Cc2ccccc2)n1	inconclusive [inhibitor, full curve, poor fit]	
CCC1Oc2ccccc2N(CC(=O)NCCCN2CCC(C)CC2)C1=O (stereo not given)	inconclusive [inhibitor, full curve]	
COc1nccnc1NS(=O)(=O)c1ccc(NC(=S)NC(=O)c2ccccc2F)cc1	inconclusive [inhibitor, full curve]	
Cc1onc(-c2ccccc2Cl)c1C(=O)N[C@@H]1C(=O)N2[C@@H]1SC(C)(C)[C@@H]2C(=O)O	active: 0.355 µM	
COc1ccc(N2CCN(c3nc4c(c(=O)[nH]c(=O)n4C)n3Cc3cccc(C)c3)CC2)cc1		inactive: 1.56%
CC1CCC(C)(NS(=O)(=O)OCC(Cl)(Cl)Cl)CC1 (stereo not given)	inconclusive [inhibitor, full curve, poor fit]	
CC(/C=C/c1ccco1)=N/NC(=O)Cc1cccs1		inactive: -3.07%
Cc1ccc(CCc2nnc(SCC(=O)Nc3cc(Cl)ccc3Cl)n2-c2ccccc2)o1	inconclusive [inhibitor, partial curve, poor fit]	
c1ccc(C2=Nc3cccc4cccc(c34)N2)cc1	inconclusive [inhibitor, single point]	
NC(N)=NC(=O)Cc1c(Cl)cccc1Cl	inconclusive [inhibitor, full curve, poor fit]	
CCOC(=O)CC1Sc2ccccc2NC1=O (stereo not given)	inconclusive [inhibitor, single point]	
O=C(O)C(Oc1ccc2c3c(c(=O)oc2c1)CCC3)c1ccccc1 (stereo not given)	inconclusive [inhibitor, full curve, poor fit]	
COc1cccc(C(=O)NC2CC3CCCC(C2)N3S(=O)(=O)c2ccccc2)c1 (stereo not given)		inactive: -0.118%
COc1ccc(C)cc1NC(=O)CN(Cc1nnc(-c2ccc(Cl)cc2)o1)C1CCCC1		inactive: -7.53%
CCC(CC)NC(=O)c1ccc(Cl)cc1	inconclusive [inhibitor, full curve, poor fit]	
CN(CC(=O)Nc1ccc(N2CCOCC2)cc1)C(=O)Cc1ccccc1	inconclusive [inhibitor, full curve, poor fit]	
